The other results are listed elsewhere or left out. Most values come without repeats; read them as rough.
The compounds below were run on A101D (assay: cell count relative to DMSO control; melanoma cells; higher = more viable cells). Conditions: library dose: standard library concentration; 72 h.
Work on `CN1CCN(c2ccc3nc(-c4c(N)c5c(F)cccc5[nH]c4=O)[nH]c3c2)CC1` [Dovitinib] + CC(=O)c1c(C)c2cnc(Nc3ccc(N4CCNCC4)cn3)nc2n(C2CCCC2)c1=O [palbociclib] (first compound 0.5 µM, partner dose 0.2 µM) yielded a cell count of 67%.
Compound `C[C@@H](Oc1cc(-c2cnn(C3CCNCC3)c2)cnc1N)c1c(Cl)ccc(F)c1Cl` [Crizotinib] + COc1cc(Nc2ncc(F)c(Nc3ccc4c(n3)NC(=O)C(C)(C)O4)n2)cc(OC)c1OC [Tamatinib] (first compound 1 µM, partner dose 2 µM) has a cell count of 69.2%.
For `C[C@@H](Oc1cc(-c2cnn(C3CCNCC3)c2)cnc1N)c1c(Cl)ccc(F)c1Cl` [Crizotinib] + Cc1cc(N2CCOCC2)cc2[nH]c(-c3c(NC[C@@H](O)c4cccc(Cl)c4)cc[nH]c3=O)nc12 [BMS536924] (first compound 1 µM, partner dose 1 µM), the cell count was 98.4%.
`CS(=O)(=O)CCNCc1ccc(-c2ccc3ncnc(Nc4ccc(OCc5cccc(F)c5)c(Cl)c4)c3c2)o1` [lapatinib] + COc1ccc(Cl)c(Nc2nc3ccccc3nc2NS(=O)(=O)c2cccc(NC(=O)C(C)(C)N)c2)c1 [XL147] (first compound 4 µM, partner dose 4 µM) gave a cell count of 91.2%.
For `C=CCNC1=C2C[C@@H](C)C[C@H](OC)[C@H](O)[C@@H](C)/C=C(\C)[C@H](OC(N)=O)[C@@H](OC)/C=C\C=C(/C)C(=O)NC(=CC1=O)C2=O` [Tanespimycin] + O=C(Nc1cccc(Cl)c1)Nc1ncc(CCNc2ncnc3ccsc23)s1 [SNS314] (first compound 0.01 µM, partner dose 0.004 µM), the cell count was 67.1%.
`CN1CCN(c2ccc3nc(-c4c(N)c5c(F)cccc5[nH]c4=O)[nH]c3c2)CC1` [Dovitinib] + C[C@@H]1CCN(C(=O)CC#N)C[C@@H]1N(C)c1ncnc2[nH]ccc12 [CP690550] (first compound 0.5 µM, partner dose 5 µM) gave a cell count of 53.6%.
`CS(=O)(=O)CCNCc1ccc(-c2ccc3ncnc(Nc4ccc(OCc5cccc(F)c5)c(Cl)c4)c3c2)o1` [lapatinib] + OCCn1cc(-c2cnc3nnn(Cc4ccc5ncccc5c4)c3n2)cn1 [PF04217903] (first compound 4 µM, partner dose 5 µM) gave a cell count of 84.7%.
Compound `C=CCNC1=C2C[C@@H](C)C[C@H](OC)[C@H](O)[C@@H](C)/C=C(\C)[C@H](OC(N)=O)[C@@H](OC)/C=C\C=C(/C)C(=O)NC(=CC1=O)C2=O` [Tanespimycin] + CO[C@@H]1[C@H](N(C)C(=O)c2ccccc2)C[C@H]2O[C@]1(C)n1c3ccccc3c3c4c(c5c6ccccc6n2c5c31)C(=O)NC4 [Midostaurin] (first compound 0.01 µM, partner dose 0.4 µM) has a cell count of 50.4%.
In the case of `CNC(=O)c1cc(Oc2ccc(NC(=O)Nc3ccc(Cl)c(C(F)(F)F)c3)cc2)ccn1` [sorafenib] + Nc1cccc2c1CN(C1CCC(=O)NC1=O)C2=O [lenalidomide] (first compound 2 µM, partner dose 5 µM), the cell count is reported as 131%.
For `C[C@@H](Oc1cc(-c2cnn(C3CCNCC3)c2)cnc1N)c1c(Cl)ccc(F)c1Cl` [Crizotinib] + C=CCNC1=C2C[C@@H](C)C[C@H](OC)[C@H](O)[C@@H](C)/C=C(\C)[C@H](OC(N)=O)[C@@H](OC)/C=C\C=C(/C)C(=O)NC(=CC1=O)C2=O [Tanespimycin] (first compound 1 µM, partner dose 0.01 µM), the cell count was 94.2%.
`CS(=O)(=O)CCNCc1ccc(-c2ccc3ncnc(Nc4ccc(OCc5cccc(F)c5)c(Cl)c4)c3c2)o1` [lapatinib] + OCc1c[nH]c2ccccc12 [Indole-3-carbinol] (first compound 4 µM, partner dose 4 µM) showed a cell count of 77.5%.
`C=CCNC1=C2C[C@@H](C)C[C@H](OC)[C@H](O)[C@@H](C)/C=C(\C)[C@H](OC(N)=O)[C@@H](OC)/C=C\C=C(/C)C(=O)NC(=CC1=O)C2=O` [Tanespimycin] + Cc1cc(N2CCOCC2)cc2[nH]c(-c3c(NC[C@@H](O)c4cccc(Cl)c4)cc[nH]c3=O)nc12 [BMS536924] (first compound 0.01 µM, partner dose 1 µM) was tested, and the cell count was 69.9%.
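Note: cells treated in 1,536-well plates, then fixed and DAPI-stained, with nuclei counted from automated high-throughput microscope images.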
